This is an account of results in PubChem BioAssay (NCI).

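Protocol summary: plate cells (96-well), add compound at 5 concentrations, incubate 48 h, interpolate endpoints linearly. GI50 = concentration required for 50% inhibition of growth.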 Some entries of the source have several records that differ or are many. This list holds those alone. An entry can have further records. For some assays here: The tests behind the records often covered other concentration ranges, not given here; a value can be the end of its range. For some assays here: The records of an entry repeat one measurement (runs, samples, wells, individuals or studies). What stands in brackets tells the records apart. Letters hold for one entry only.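 The concentration for full growth arrest is given as TGI.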 A value given as a limit tells only on which side of the number the result lay.

Among the test systems are T-47D breast; HOP-92 NSCLC; MALME-3M melanoma; EKVX NSCLC; SK-MEL-2 melanoma; RPMI-8226 leukemia; CCRF-CEM leukemia; HL-60(TB) leukemia; MOLT-4 leukemia; KM20L2 colon.
What all share (assay): NCI anticancer screen, dose series, 48 h

Turning to `Cc1nc(-c2cn3c(n2)-c2ccc(-c4cnn(C(C)(C)C(N)=O)c4)cc2OCC3)n(C(C)C)n1`, the TGI is 1.45 µM [sample A, mean of 2 tests] and 36.5 nM [sample B, 1 test] in the assay with T-47D breast; > 26.9 µM [sample A, mean of 2 tests] and 1.88 µM [sample B, mean of 2 tests] in the assay on HOP-92 NSCLC. Further, in the assay on MALME-3M melanoma, the GI50 is 41.3 nM [sample A, mean of 2 tests] and 662 nM [sample B, mean of 2 tests].
In the case of `CCC/C(=N\NC(=S)N1CC2CCC(CC2)C1)c1ccccn1`, the TGI was 164 nM and 2.87 µM in the assay with EKVX NSCLC; 221 nM and 2.82 µM in the assay with SK-MEL-2 melanoma; 663 nM and 12.7 nM in the assay with RPMI-8226 leukemia; 933 nM and 39.8 nM with CCRF-CEM leukemia; 572 nM and 11.9 nM with HL-60(TB) leukemia; 4.11 µM and 86.9 nM with MOLT-4 leukemia. Further, the TGI with KM20L2 colon was 136 nM and 2.78 µM. Also, in the assay on MALME-3M melanoma, the GI50 was 1.16 µM and 50.6 nM.
